# Test results taken from paper PMC6451091.
# Some of the results follow. For part of these data: At the low end of the ranking the order means little. For part of these data: Measured with an extract: partners may take part in the binding.
# Target: PU.1 (IVT) (UniProt P17947)
# Experiment: protein-binding microarray (PBM)
# Settings: 20 mM HEPES pH 7.9, 100 mM NaCl, 1 mM DTT, 0.2 mg/mL BSA, 0.02% Triton X-100, 2% milk, 0.4 mg/mL salmon testes DNA; 1 h; temperature not stated; high values mean tight binding; double strand, one strand shown; sequences stand for … in GCCTAGCAC…GTGCTAGGTCTTGATTCGCTTGACGCTGCTG
row,Sequence,binding signal [z-score]
1,AGAAAAGGGAAGTGAGGGAA,6.48
2,TTTTTGAGGAAGTGCAGACT,6.05
3,AAAGAAGGGAAGTGACTTGC,3.86
4,ATAAAAAGGAAGTGAGATTT,5.24
5,CAAAAGCGGAAGTGGTGCCT,8.56
6,CCTGTGAGGAAGTGGGGCAG,3.37
7,GGGAGGAGGAAGTGCTCTTG,4.7
8,CAACTGAGGAAGTGATCTCA,3.75
9,AAGAAGAGGAAGTCTATAGC,5.83
10,CCAAAGCGGAAGTGTCGGGC,6.38
11,CCCATAGGGAAGTGCACTGA,3.67
12,TGCAAGGGGAAGTGGTTTTG,5.08
13,CAAACAGGGAAGTGGATGCT,4.22
14,GAAAACAGGAAATCCCATAG,3.38
15,CGAAAGGGGAAGGGCTAAAC,2.64
16,TAGAAGAGGAAGTGAGAGAC,5.64
17,CAAAAGAGGAACTCTTTGGT,7.01
18,AAGAAAAGGAAGTCCAGCTG,3
19,AGAAAGGGGAAGTCAATCTG,7.41
20,GTGGAGGGGAAGTGGGAGGG,3.01

row,Sequence,binding signal [z-score]
1,TGAAAGAGGATGTGCAACCA,1.97
2,CTTTAGAGGAAGTGTGAGCT,4.17
3,GAGAAGGGGAAATACTGTGC,2.6
4,GAAAACAGGCAGTCCCATAG,0.145
5,CAAATGAGGGACTGATGCGG,-0.604
6,ATAAAGAGGAAGTGCTGGAA,7.51
7,TAAAAGAGGAAGTCAGTGGG,7.67
8,CAAATGAGGAACTGATACGG,5.99
9,AAAAAGGGGAAGTACTGCGA,8.58
10,CAGAAAAGGAAGTAAGCCAC,3.98
11,GGACTGGGGAAGTGGCCTGG,2.43
12,GCTATGAGGAACTGAGGGCA,2.57
13,TGAAAGAGGGAGTGCAACCA,-0.306
14,GTTATGAGGAAGTCTGAATA,4.61
15,AGCAAGAGGAAGTGAGATGA,4.9
16,ACAGAAAGGAAGTGGTCAAC,1.98
17,CATAAGAGGAAGTGGCAGTT,6.2
18,GCAAAGAGGAAGTGTCTGCT,6.4
19,AGAAAGAGGAAGGGGAGGTT,3.89

# Target: PU.1 (endogenous, THP-1 nuclear extract) (UniProt P17947)
# Experiment: nuclear extract protein-binding microarray (nextPBM)
# Settings: 20 mM HEPES pH 7.9, 100 mM NaCl, 1 mM DTT, 0.2 mg/mL BSA, 0.02% Triton X-100, 2% milk, 0.4 mg/mL salmon testes DNA; 1 h; temperature not stated; high values mean tight binding; double strand, one strand shown; sequences stand for … in GCCTAGCAC…GTGCTAGGTCTTGATTCGCTTGACGCTGCTG
row,Sequence,binding signal [z-score]
1,AGAAAAGGGAAGTGAGGGAA,6.82
2,TTTTTGAGGAAGTGCAGACT,6.42
3,AAAGAAGGGAAGTGACTTGC,3.66
4,ATAAAAAGGAAGTGAGATTT,4.64
5,CAAAAGCGGAAGTGGTGCCT,7.27
6,CCTGTGAGGAAGTGGGGCAG,3.63
7,GGGAGGAGGAAGTGCTCTTG,5.14
8,CAACTGAGGAAGTGATCTCA,3.55
9,AAGAAGAGGAAGTCTATAGC,5.88
10,CCAAAGCGGAAGTGTCGGGC,6.46
11,CCCATAGGGAAGTGCACTGA,3.98
12,TGCAAGGGGAAGTGGTTTTG,5.24
13,CAAACAGGGAAGTGGATGCT,4.65
14,GAAAACAGGAAATCCCATAG,3.13
15,CGAAAGGGGAAGGGCTAAAC,2.91
16,TAGAAGAGGAAGTGAGAGAC,6.16
17,CAAAAGAGGAACTCTTTGGT,6.97
18,AAGAAAAGGAAGTCCAGCTG,2.86
19,AGAAAGGGGAAGTCAATCTG,6.97
20,GTGGAGGGGAAGTGGGAGGG,3.01

row,Sequence,binding signal [z-score]
1,TGAAAGAGGATGTGCAACCA,2.42
2,CTTTAGAGGAAGTGTGAGCT,4.75
3,GAGAAGGGGAAATACTGTGC,2.11
4,GAAAACAGGCAGTCCCATAG,0.292
5,CAAATGAGGGACTGATGCGG,-0.446
6,ATAAAGAGGAAGTGCTGGAA,7.25
7,TAAAAGAGGAAGTCAGTGGG,7.06
8,CAAATGAGGAACTGATACGG,6.56
9,AAAAAGGGGAAGTACTGCGA,7.45
10,CAGAAAAGGAAGTAAGCCAC,3.9
11,GGACTGGGGAAGTGGCCTGG,2.96
12,GCTATGAGGAACTGAGGGCA,2.87
13,TGAAAGAGGGAGTGCAACCA,-0.258
14,GTTATGAGGAAGTCTGAATA,4.65
15,AGCAAGAGGAAGTGAGATGA,5.34
16,ACAGAAAGGAAGTGGTCAAC,2.23
17,CATAAGAGGAAGTGGCAGTT,6.33
18,GCAAAGAGGAAGTGTCTGCT,6.72
19,AGAAAGAGGAAGGGGAGGTT,4.72
